From PMC5027616
No constants are given. Whether binding was seen depends on the method and setting. Some results given as binding are weak or reduced against the parent protein; the word gives no strength.

Sequences of proteins named here, by UniProt entry; tags and fusion partners are left off. Residues count along the entry.
UniProt P36222, residues 22-383: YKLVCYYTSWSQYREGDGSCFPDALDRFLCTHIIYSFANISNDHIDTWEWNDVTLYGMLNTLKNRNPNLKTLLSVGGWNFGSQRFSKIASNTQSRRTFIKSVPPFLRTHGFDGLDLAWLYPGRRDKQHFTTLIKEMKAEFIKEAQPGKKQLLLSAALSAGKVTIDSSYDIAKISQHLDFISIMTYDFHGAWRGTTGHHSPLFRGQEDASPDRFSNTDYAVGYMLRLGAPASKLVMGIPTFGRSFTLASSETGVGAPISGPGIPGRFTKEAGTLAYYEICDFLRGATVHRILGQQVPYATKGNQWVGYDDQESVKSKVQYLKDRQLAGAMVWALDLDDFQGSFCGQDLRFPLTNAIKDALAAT

Molecular target: T1, ectodomain of IL-13Rα2 (ecto-IL-13Rα2), labelled (UniProt Q14627)
T1 sequence (chain, BODPY-TRM-X-succinimidyl ester label): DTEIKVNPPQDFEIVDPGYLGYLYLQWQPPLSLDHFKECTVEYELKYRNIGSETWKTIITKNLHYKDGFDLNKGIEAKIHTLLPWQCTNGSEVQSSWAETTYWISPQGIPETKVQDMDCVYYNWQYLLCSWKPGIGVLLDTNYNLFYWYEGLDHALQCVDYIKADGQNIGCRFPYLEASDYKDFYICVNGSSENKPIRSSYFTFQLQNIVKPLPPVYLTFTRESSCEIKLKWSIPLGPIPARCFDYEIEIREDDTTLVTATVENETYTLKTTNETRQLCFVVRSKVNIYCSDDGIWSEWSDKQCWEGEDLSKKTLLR
Assay: fluorescence polarisation; fluorescence anisotropy; serial dilutions of TMEM219 in 13 nm nanodisc (10 nM-10 μM) added to 10 nM labelled protein or complex; PBS for labelling; empty nanodisc as control; both purified

binding: binds
Substance: Chi3l1 (chitinase 3-like-1), expressed in insect cells, labelled (from UniProt P36222 22-383) (ligand)
